Laboratory results: the supplement of paper PMC4604168 (melanoma cell lines)
This is one part of the list. Repeats are few or missing, and single values can be far off.

Legend:
Test in all cases: cell count relative to DMSO control; melanoma cells; higher = more viable cells
Details in all cases: library dose: standard library concentration; 72 h
A101D = system: A101D
A2058 = system: A2058
A375 = system: A375
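Further: cells treated in 1,536-well plates, then fixed and DAPI-stained, with nuclei counted from automated high-throughput microscope images.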

| Structure (SMILES) | cell count (A101D) [%] | cell count (A2058) [%] | cell count (A375) [%] |
| --- | --- | --- | --- |
| COc1cc([C@@H]2c3cc4c(cc3[C@@H](O[C@@H]3O[C@@H]5CO[C@@H](C)O[C@H]5[C@H](O)[C@H]3O)[C@H]3COC(=O)[C@H]23)OCO4)cc(OC)c1O [etoposide] + O=C(/C=C/c1cccnc1)NCCCCC1CCN(C(=O)c2ccccc2)CC1 [FK866] (first compound 0.1 µM, partner dose 0.05 µM) | 84.1 | 88.5 | 81.1 |
| CCN(CC)CCNC(=O)c1c(C)[nH]c(/C=C2\C(=O)Nc3ccc(F)cc32)c1C [sunitinib] + O=C(Nc1ccccc1)c1cc([N+](=O)[O-])ccc1Cl [GW9662] (first compound 2 µM, partner dose 10 µM) | 57.8 | 83.8 | 108 |
| Cn1cnc2c(F)c(Nc3ccc(Br)cc3Cl)c(C(=O)NOCCO)cc21 [selumetinib] + OCCn1cc(-c2cnc3nnn(Cc4ccc5ncccc5c4)c3n2)cn1 [PF04217903] (first compound 0.075 µM, partner dose 5 µM) | 72.4 | 94.7 | 91.1 |
| C[C@]1(O)C[C@@H](c2nc(-c3ccc4ccc(-c5ccccc5)nc4c3)c3c(N)nccn32)C1 + CC1(C)NC(=O)N(c2ccc([N+](=O)[O-])c(C(F)(F)F)c2)C1=O [nilutamide] (first compound 2 µM, partner dose 5 µM) | 98.7 | 121 | 80.9 |
| C[C@]1(O)C[C@@H](c2nc(-c3ccc4ccc(-c5ccccc5)nc4c3)c3c(N)nccn32)C1 + C[C@@H](Oc1cc(-c2cnn(C3CCNCC3)c2)cnc1N)c1c(Cl)ccc(F)c1Cl [Crizotinib] (first compound 2 µM, partner dose 1 µM) | 93.8 | 92.8 | 112 |
| Cn1cnc2c(F)c(Nc3ccc(Br)cc3Cl)c(C(=O)NOCCO)cc21 [selumetinib] + CCN(CC)CCNC(=O)c1c(C)[nH]c(/C=C2\C(=O)Nc3ccc(F)cc32)c1C [sunitinib] (first compound 0.075 µM, partner dose 2 µM) | 62.9 | 57.1 | 86.4 |
| COc1cc([C@@H]2c3cc4c(cc3[C@@H](O[C@@H]3O[C@@H]5CO[C@@H](C)O[C@H]5[C@H](O)[C@H]3O)[C@H]3COC(=O)[C@H]23)OCO4)cc(OC)c1O [etoposide] + CS(=O)(=O)c1ccc(C(=O)Nc2ccc(Cl)c(-c3ccccn3)c2)c(Cl)c1 [vismodegib] (first compound 0.1 µM, partner dose 5 µM) | 107 | 74.8 | 83.1 |
| C[C@]1(O)C[C@@H](c2nc(-c3ccc4ccc(-c5ccccc5)nc4c3)c3c(N)nccn32)C1 + Cn1c(Nc2ccc(C(F)(F)F)cc2)nc2cc(Oc3ccnc(-c4ncc(C(F)(F)F)[nH]4)c3)ccc21 [CHIR265] (first compound 2 µM, partner dose 0.4 µM) | 60 | 82.3 | 58.1 |
| C[C@]1(O)C[C@@H](c2nc(-c3ccc4ccc(-c5ccccc5)nc4c3)c3c(N)nccn32)C1 + CC(=O)c1c(C)c2cnc(Nc3ccc(N4CCNCC4)cn3)nc2n(C2CCCC2)c1=O [palbociclib] (first compound 2 µM, partner dose 0.2 µM) | 82.5 | 118 | 72.1 |
| COc1cc([C@@H]2c3cc4c(cc3[C@@H](O[C@@H]3O[C@@H]5CO[C@@H](C)O[C@H]5[C@H](O)[C@H]3O)[C@H]3COC(=O)[C@H]23)OCO4)cc(OC)c1O [etoposide] + O=c1cc(-c2cccc3c2Sc2ccccc2S3)oc(N2CCOCC2)c1 [KU55933] (first compound 0.1 µM, partner dose 5 µM) | 83.4 | 79.7 | 84.5 |
| Cn1cnc2c(F)c(Nc3ccc(Br)cc3Cl)c(C(=O)NOCCO)cc21 [selumetinib] + Cc1cc(N2CCOCC2)cc2[nH]c(-c3c(NC[C@@H](O)c4cccc(Cl)c4)cc[nH]c3=O)nc12 [BMS536924] (first compound 0.075 µM, partner dose 1 µM) | 76.2 | 98.4 | 96.2 |
| C[C@]1(O)C[C@@H](c2nc(-c3ccc4ccc(-c5ccccc5)nc4c3)c3c(N)nccn32)C1 + COc1cc2c(Oc3ccc4[nH]c(C)cc4c3F)ncnc2cc1OCCCN1CCCC1 [cediranib] (first compound 2 µM, partner dose 2 µM) | 115 | 105 | 111 |
| COc1cc([C@@H]2c3cc4c(cc3[C@@H](O[C@@H]3O[C@@H]5CO[C@@H](C)O[C@H]5[C@H](O)[C@H]3O)[C@H]3COC(=O)[C@H]23)OCO4)cc(OC)c1O [etoposide] + Cc1nc(Nc2ncc(C(=O)Nc3c(C)cccc3Cl)s2)cc(N2CCN(CCO)CC2)n1 [dasatanib] (first compound 0.1 µM, partner dose 0.02 µM) | 60.3 | 57.4 | 67.2 |
| CCN(CC)CCNC(=O)c1c(C)[nH]c(/C=C2\C(=O)Nc3ccc(F)cc32)c1C [sunitinib] + Nc1ccn([C@@H]2O[C@H](CO)[C@@H](O)C2(F)F)c(=O)n1 [gemcitabine] (first compound 2 µM, partner dose 0.002 µM) | 68.5 | 57.5 | 131 |
| Cn1cnc2c(F)c(Nc3ccc(Br)cc3Cl)c(C(=O)NOCCO)cc21 [selumetinib] + C[C@@H](Oc1cc(-c2cnn(C3CCNCC3)c2)cnc1N)c1c(Cl)ccc(F)c1Cl [Crizotinib] (first compound 0.075 µM, partner dose 1 µM) | 76.5 | 62.9 | 78.5 |
| C[C@]1(O)C[C@@H](c2nc(-c3ccc4ccc(-c5ccccc5)nc4c3)c3c(N)nccn32)C1 + NCC(=O)Nc1ccc(-n2nc(C(F)(F)F)cc2-c2ccc3c(ccc4ccccc43)c2)cc1 [OSU03012] (first compound 2 µM, partner dose 5 µM) | 69.3 | 93.9 | 35.9 |
| C[C@]1(O)C[C@@H](c2nc(-c3ccc4ccc(-c5ccccc5)nc4c3)c3c(N)nccn32)C1 + O=C(Nc1cccc(Cl)c1)Nc1ncc(CCNc2ncnc3ccsc23)s1 [SNS314] (first compound 2 µM, partner dose 0.004 µM) | 91.5 | 70.5 | 83 |
| Cn1cnc2c(F)c(Nc3ccc(Br)cc3Cl)c(C(=O)NOCCO)cc21 [selumetinib] + Cn1nnc2c(C(N)=O)ncn2c1=O [temozolomide] (first compound 0.075 µM, partner dose 10 µM) | 66.9 | 61.1 | 100 |
| COc1cc([C@@H]2c3cc4c(cc3[C@@H](O[C@@H]3O[C@@H]5CO[C@@H](C)O[C@H]5[C@H](O)[C@H]3O)[C@H]3COC(=O)[C@H]23)OCO4)cc(OC)c1O [etoposide] + NC1(c2ccc(-c3nc4ccn5c(=O)[nH]nc5c4cc3-c3ccccc3)cc2)CCC1 [MK2206] (first compound 0.1 µM, partner dose 2 µM) | 80.8 | 76.4 | 126 |
| COc1cc([C@@H]2c3cc4c(cc3[C@@H](O[C@@H]3O[C@@H]5CO[C@@H](C)O[C@H]5[C@H](O)[C@H]3O)[C@H]3COC(=O)[C@H]23)OCO4)cc(OC)c1O [etoposide] + CS(=O)(=O)CCNCc1ccc(-c2ccc3ncnc(Nc4ccc(OCc5cccc(F)c5)c(Cl)c4)c3c2)o1 [lapatinib] (first compound 0.1 µM, partner dose 4 µM) | 80.5 | 70 | 81.7 |
| COc1cc([C@@H]2c3cc4c(cc3[C@@H](O[C@@H]3O[C@@H]5CO[C@@H](C)O[C@H]5[C@H](O)[C@H]3O)[C@H]3COC(=O)[C@H]23)OCO4)cc(OC)c1O [etoposide] + CN(C)S(=O)(=O)c1ccc2c(c1)/C(=C/c1cc3c([nH]1)CCCC3)C(=O)N2 [SU6656] (first compound 0.1 µM, partner dose 2 µM) | 65.2 | 78.1 | 99.2 |
| COc1cc([C@@H]2c3cc4c(cc3[C@@H](O[C@@H]3O[C@@H]5CO[C@@H](C)O[C@H]5[C@H](O)[C@H]3O)[C@H]3COC(=O)[C@H]23)OCO4)cc(OC)c1O [etoposide] + C[C@@H]1CCN(C(=O)CC#N)C[C@@H]1N(C)c1ncnc2[nH]ccc12 [CP690550] (first compound 0.1 µM, partner dose 5 µM) | 94.6 | 96 | 69.1 |
| CCN(CC)CCNC(=O)c1c(C)[nH]c(/C=C2\C(=O)Nc3ccc(F)cc32)c1C [sunitinib] + COc1cc2c(Oc3ccc4[nH]c(C)cc4c3F)ncnc2cc1OCCCN1CCCC1 [cediranib] (first compound 2 µM, partner dose 2 µM) | 43.9 | 55.1 | 80.5 |
| Cn1cnc2c(F)c(Nc3ccc(Br)cc3Cl)c(C(=O)NOCCO)cc21 [selumetinib] + CN1CCN(c2ccc3nc(-c4c(N)c5c(F)cccc5[nH]c4=O)[nH]c3c2)CC1 [Dovitinib] (first compound 0.075 µM, partner dose 0.5 µM) | 67 | 22.5 | 44.5 |
| COc1cc([C@@H]2c3cc4c(cc3[C@@H](O[C@@H]3O[C@@H]5CO[C@@H](C)O[C@H]5[C@H](O)[C@H]3O)[C@H]3COC(=O)[C@H]23)OCO4)cc(OC)c1O [etoposide] + Cc1ccc(Nc2nccc(N(C)c3ccc4c(C)n(C)nc4c3)n2)cc1S(N)(=O)=O [Pazopanib] (first compound 0.1 µM, partner dose 2 µM) | 90.1 | 74.4 | 57.5 |
